Data from publication PMC12136788.
Some of the results follow.

T1: UNK ZnF1-6 (called full-length) (human, UniProt Q9C0B0 30-357)
T1 sequence: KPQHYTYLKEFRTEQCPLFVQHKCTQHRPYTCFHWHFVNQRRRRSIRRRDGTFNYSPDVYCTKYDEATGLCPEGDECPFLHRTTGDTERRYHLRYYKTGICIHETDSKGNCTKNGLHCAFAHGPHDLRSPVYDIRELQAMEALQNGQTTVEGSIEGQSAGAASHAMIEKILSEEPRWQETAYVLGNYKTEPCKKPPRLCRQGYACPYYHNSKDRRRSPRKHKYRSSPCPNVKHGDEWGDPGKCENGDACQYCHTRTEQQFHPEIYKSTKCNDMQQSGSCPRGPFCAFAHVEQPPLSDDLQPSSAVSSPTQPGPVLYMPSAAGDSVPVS

B1: chr10:110887682:110887783:+|CDS|ENSG00000150593|msi1|total|mutant (ssRNA)
RNA: GGGAGUUCUACAGUCCGACGAUCGUUAAGAGAUUUAAAUCUUGGUGAAAUGAAAAGUGGAGUACCAGUGUUGGCAGUAUCCUCCGCAUUGGAGGGGAAGGCCCGUCACCGAGAGAUGACAUCUAAGCUUCUUUCUGACCUUUGCAACAGAGGAUUGAGCAUCA
B2: chr15:73714018:73714119:+|3pUTR|ENSG00000103855|msi1|FALSE|unique (ssRNA)
RNA: GGGAGUUCUACAGUCCGACGAUCCCCACCCAUAAUUCUUACCCAGAGCAUGGGGUUGGGGCGGAAACCUGGAGAGAGGGACAUAGCCCCUCGCCACGGCUAGAGAAUCUGGUGGUGUCCAAAAUGUCUGUCCAGGUGUGGGCACAACAGAGGAUUGAGCAUCA
B3: chr1:208022241:208027242:-|three_prime_utr|ENSG00000076356|control|control|control (ssRNA)
RNA: GGGAGUUCUACAGUCCGACGAUCGAGACCCCAUCCUGGGGAGAGGGGAGGACUCCUCUCCCUACGCCAGCCAAGUUUCGUCAUAGCCAGUUCCAGCUGGGAGAGACAGUGGGCGUCGUCCAUCCUCAGUGAGAACACCAGAGACAACAGAGGAUUGAGCAUCA
B4: ENSG00000198589:be:win_7701|CDS|ENSG00000198589|bound_else_gene|NA|bound_elsewhere_windowed (ssRNA)
RNA: GGGAGUUCUACAGUCCGACGAUCUACAGGAAUGCACAGGAGGCAAAUCACUGACCUUUUAGACCAAAGUAUUCAAGUGCAUUCCCAGUGCUUUGUCAUCACUUCAGACAACCGCUAUAUUCUCGUCUGUGGCUUCUGGGAUAACAACAGAGGAUUGAGCAUCA
B5: chr12:12643182:12643283:+|3pUTR|ENSG00000111269|unk|FALSE|unique (ssRNA)
RNA: GGGAGUUCUACAGUCCGACGAUCCUGGAGUUGUGCACAGCACCGCAGCUAGUGGGCCUGGCUGGGGGUGCAGAAGGGCAGGGUAGUUCUUUCCAUUUCCCCUUGCAGCUACACUUACUUUCUCCCUGACUACCAAAUGGAGUGCAACAGAGGAUUGAGCAUCA
B6: chr1:203167810:203168091:-|three_prime_utr|ENSG00000133055|control|control|control (ssRNA)
RNA: GGGAGUUCUACAGUCCGACGAUCGGGCCAGGUCCACCAGGCCUACAGUCAAACUCCAGAGAUGCCCAAGACCCCCGCUUCCAUAGCGACGGCUGAUGGAACCGCCCCUGGUACCUGCUGGCCUCCCUUCCCCAGAGGCUGGUGCAACAGAGGAUUGAGCAUCA

What follows are binders tested against T1, UNK ZnF1-6 (called full-length) (assay: nsRBNS (natural sequence RNA bind-n-seq); RBNS binding buffer (assumed for nsRBNS): 25 mM Tris pH 7.5, 150 mM KCl, 3 mM MgCl2, 0.01% Triton X-100, 500 ug/ml BSA, 20 U/ml SUPERase-In, 4 C; UNK is unkempt and MSI1 is Musashi-1; names of the RNAs are library labels; protein concentration not given here; high values mean tight binding).

Point of comparison: B4, binding signal 0.691 enrichment R. Against it:
- B1 — lower, 0.611 enrichment R
- B2 — lower, 0.628 enrichment R
- B3 — lower, 0.603 enrichment R
- B5 — higher, 1.04 enrichment R
- B6 — higher, 0.762 enrichment R
